# Data published in paper PMC4242493.
# The other results are listed elsewhere or left out. The list includes weakly bound sequences.
# Target: MaxL homodimer (UniProt P61244)
# Experiment: universal protein-binding microarray (PBM)
# Conditions: PBS-based mixture, 10 nM His-tagged protein dimer, 2% milk, 200 ng/uL BSA, 50 ng/uL salmon testes DNA, 0.02% TX-100; detection with Alexa 488 anti-His …; high values mean tight binding; most listed sequences are background and not binding sites; double strand, one strand shown
# Chain of UniProt P61244 (P61244 whole entry): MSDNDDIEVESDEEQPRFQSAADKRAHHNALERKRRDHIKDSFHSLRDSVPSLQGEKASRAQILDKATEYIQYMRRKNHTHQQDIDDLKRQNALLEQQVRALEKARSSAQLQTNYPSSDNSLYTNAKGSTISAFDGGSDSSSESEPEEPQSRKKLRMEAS
row,Sequence,binding signal (normalized occupancy)
1,ACGGTTAG,0.072
2,ACTAGCCG,0.0653
3,CATCGTTC,0.0714
4,AACCCGAA,0.0754
5,AGACCGAT,0.0735
6,GCAAGGCA,0.075
7,AACAGAGA,0.0746
8,GTAAGGAC,0.0678
9,CACGACGC,0.0777
10,AGCCGGCC,0.0666
11,CTGACTGC,0.0712
12,ACTGCGCT,0.0743
13,CCCGTTCG,0.0713
14,AACTAGGG,0.0777
15,CGACTTGC,0.0716
16,GGGTTCTA,0.0754
17,CTGGTAAA,0.0724
18,GTTTGTTA,0.075
19,CTTTTTGA,0.0761
20,GATGACCC,0.0786
21,GACGTTAA,0.0763
22,TAGCAGGA,0.0736
23,CTATACCA,0.0839
24,CAGAGAGA,0.0695
25,AAATGTCA,0.0797

row,Sequence,binding signal (normalized occupancy)
1,TCGGTTAA,0.0699
2,GGAGCGTA,0.0706
3,CGGAGATC,0.0714
4,CAGTGTCA,0.0789
5,GAGCCCGA,0.0736
6,ACGGGGAG,0.0725
7,GCATAGGA,0.0788
8,TATTTGGA,0.0774
9,GACCCCCA,0.08
10,ATGCATGG,0.0969
11,AGATCCTA,0.0763
12,AAACGACT,0.0699
13,GGGACTGA,0.069
14,GGACCCCC,0.0772
15,AGTATGCG,0.077
16,CACAGATC,0.0797
17,AGTACACG,0.0869
18,CATATTAA,0.0818
19,CTTAGGCA,0.0777
20,AAACGGAA,0.068
21,CTCAGCAA,0.0691
22,CATTTGTC,0.0834
23,ACCGGCTC,0.0681
24,AGAGGGTG,0.077
25,ACATAAAC,0.0829

row,Sequence,binding signal (normalized occupancy)
1,CGTATCAC,0.0792
2,AATGCTGA,0.082
3,GATCCACC,0.0812
4,CTCTTAGC,0.0798
5,CACAACCC,0.0801
6,CAGGATTC,0.0733
7,GGGATCCC,0.0723
8,AAATTCCT,0.073
9,CATTCCAC,0.0839
10,ACAGTCAA,0.074
11,ACGTGTAT,0.117
12,ATAGCCAT,0.0853
13,AGGGCGCG,0.0681
14,AGTTTGCC,0.0705
15,AACGAGTA,0.077
16,CGAGCTTC,0.0748
17,GAGCTAGC,0.0715
18,AGGGAGCA,0.0728
19,AACGCTGG,0.0764
20,TCGCTAGA,0.0699
21,GCTCATCA,0.0824
22,GGTCTGGA,0.0728
23,AACGCCGA,0.0693
24,AGAGGGCA,0.08
25,AAATCTGA,0.0782

row,Sequence,binding signal (normalized occupancy)
1,GGGCTAAA,0.0734
2,GATACCTA,0.0797
3,AAAAAACT,0.0712
4,TATTTCCA,0.0787
5,CGCCGGCA,0.0696
6,CTGGTGTA,0.0786
7,CCAGATCG,0.0689
8,AGCTTGAG,0.0649
9,ACAAGCAC,0.0779
10,GTTTAGCA,0.0697
11,GCGCCCGA,0.0658
12,CAGAATCG,0.0691
13,AGGCACTA,0.07
14,CGGCGACA,0.0733
15,AGCGGAGC,0.0679
16,CGTCGAAA,0.0702
17,CAAGTCGA,0.0705
18,AGTTGGCG,0.0685
19,GAATTCTC,0.0755
20,ATATCGAT,0.0784
21,CTTCGTGC,0.0757
22,CTTGGCGC,0.0674
23,GTGGGGTA,0.0861
24,CTATTCAC,0.083
25,AACACATC,0.0848

row,Sequence,binding signal (normalized occupancy)
1,CCATACCA,0.0838
2,TAATCGTA,0.0765
3,ATAGTGAC,0.0777
4,CATCCTAG,0.0749
5,CCTTTGCA,0.0721
6,CAGTGGGG,0.0757
7,GGGAATCA,0.0756
8,CGCCTCAG,0.0711
9,ACTCTTAG,0.0762
10,AACTGATC,0.0745
11,CGAGGACA,0.0774
12,CTGCGCCC,0.0679
13,GCGTTCAA,0.0757
14,CACCGCCA,0.0767
15,AATTGGCT,0.0714
16,TAGTCACA,0.0887
17,CTAGTCCA,0.0733
18,ACTATGAG,0.0806
19,CCAAGCGA,0.0745
20,CGGAGAAG,0.0684
21,AGGCACCG,0.0732
22,CCTGGTGC,0.0748
23,CTAATTCC,0.0722
24,GTCGGAGA,0.0698
25,ACGCAAGA,0.0753

row,Sequence,binding signal (normalized occupancy)
1,AAACGGGA,0.0751
2,CAGCGAAC,0.0694
3,AAGGTGGT,0.0778
4,AGGTAGCC,0.0711
5,GGGTAAAA,0.0765
6,CAGACGCA,0.0669
7,GCCTACAC,0.083
8,CTGTGGAC,0.0726
9,AGAAGCGG,0.0695
10,GAGCATAC,0.0789
11,CTAATAAA,0.0778
12,GGAGATCC,0.0746
13,TCTACGCA,0.0731
14,AAAGGAAT,0.0719
15,AACGCTAC,0.0825
16,AGATACTG,0.0752
17,AATATGAG,0.0831
18,CTGATGTC,0.0737
19,AAAGTTGG,0.0693
20,ATATTAGA,0.0864
21,CACGACAC,0.0789
22,CGTCAAAA,0.073
23,CTTGAAGA,0.0703
24,CGCCGTGA,0.0741
25,GAAATCGC,0.0673

row,Sequence,binding signal (normalized occupancy)
1,CTGCCGTC,0.0702
2,ACCTGTAT,0.0849
3,AGTAGTGG,0.0787
4,AATACCGC,0.0734
5,CTGCTGAC,0.0705
6,AGTAGCGA,0.0676
7,ATGGCAAC,0.0773
8,CTTTAGGA,0.0753
9,GCGCCACA,0.0784
10,GAGGTCCC,0.0679
11,GGCCTTAC,0.0719
12,CCTCAGCG,0.0718
13,ACCGCGTC,0.0706
14,CCCGAGTA,0.0705
15,CGTGTTGC,0.0822
16,AAACGGCA,0.0703
17,GTTTACAA,0.0742
18,AATCGGGA,0.0782
19,CATAGATG,0.0809
20,ACACGACT,0.0807
21,ACTTCGAA,0.0685
22,GGCCCCCC,0.0687
